The values that follow come from PubChem BioAssay (NCI).

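Cells were grown in 96-well plates and exposed to each compound for 48 hours at five concentrations; endpoints were interpolated linearly between bracketing concentrations, or set to the highest concentration if not reached. GI50 is the concentration that inhibits growth by half. The concentration for full growth arrest is given as TGI.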

This experiment deals with NCI-H322M lung. In words: NCI-60 cell line screen, 48 h.

As for `C#C[C@]1(O)CC[C@H]2[C@@H]3CC=C4c5sc(-c6ccc7c(c6)OCO7)nc5CC[C@]4(C)[C@H]3CC[C@@]21C`, the GI50 was 3.33 µM and the TGI was 79 µM.

For `NS(=O)(=O)c1cccc(Nc2nc(SCC(=O)c3ccc([N+](=O)[O-])cc3)nc3ccccc23)c1`, the GI50 is 49.9 µM and the TGI is over 100 µM.
